# The other results are listed elsewhere or left out.
# How the values were obtained:
# Assay in all cases: glycan array binding signal (z-score within array); higher = stronger binding
# Conditions in all cases: glycan notation: IUPAC condensed, linker removed
# GalNAc(b1-4)GlcNAc = biological target: GalNAc(b1-4)GlcNAc
# Outline: (§1)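 Glycan array data came from 3228 arrays in the Consortium for Functional Glycomics database, and only arrays with an available protein sequence were kept. Glycan names were put into IUPAC-condensed notation, and columns mapping to the same glycan were averaged. The binding signal is a within-array Z-score, averaged across arrays of one protein sequence run at different concentrations or buffers and across linkers. A negative Z-score can be read as non-binding.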
# [1] = biological target: GalNAc(b1-4)GlcNAc(b1-2)Man
# Outline: as §1
# [2] = biological target: GalNAc(b1-4)GlcNAc(b1-2)Man(a1-3)[GalNAc(b1-4)GlcNAc(b1-2)Man(a1-6)]Man(b1-4)GlcNAc(b1-4)GlcNAc
# Outline: as §1
# [3] = biological target: GalNAc(b1-4)GlcNAc(b1-3)GalNAc(b1-4)GlcNAc
# Outline: as §1
# GalNAc(b1-4)GlcNAc6S = biological target: GalNAc(b1-4)GlcNAc6S
# Outline: as §1
# GalNAc(b1-6)GalNAc = biological target: GalNAc(b1-6)GalNAc
# Outline: as §1
# GalNAc3S(b1-4)GlcNAc = biological target: GalNAc3S(b1-4)GlcNAc
# Outline: as §1
# GalNAc3S(b1-4)GlcNAc3S = biological target: GalNAc3S(b1-4)GlcNAc3S
# Outline: as §1
# [4] = biological target: GalNAc3S(b1-4)[Fuc(a1-3)]GlcNAc
# Outline: as §1
# GalNAc4S6S(b1-4)GlcNAc = biological target: GalNAc4S6S(b1-4)GlcNAc
# Outline: as §1
# GalNAc6S(b1-4)GlcNAc = biological target: GalNAc6S(b1-4)GlcNAc
# Outline: as §1
# Glc(a1-4)Glc = biological target: Glc(a1-4)Glc
# Outline: as §1
# [5] = biological target: Glc(a1-4)Glc(a1-4)Glc(a1-4)Glc
# Outline: as §1
# Glc(a1-6)Glc(a1-6)Glc = biological target: Glc(a1-6)Glc(a1-6)Glc
# Outline: as §1
# [6] = biological target: Glc(a1-6)Glc(a1-6)Glc(a1-6)Glc
# Outline: as §1
# Glc(b1-4)Glc = biological target: Glc(b1-4)Glc
# Outline: as §1
# Glc(b1-6)Glc = biological target: Glc(b1-6)Glc
# Outline: as §1
# GlcA(b1-3)Gal = biological target: GlcA(b1-3)Gal
# Outline: as §1
# GlcA(b1-3)GlcNAc = biological target: GlcA(b1-3)GlcNAc
# Outline: as §1
# GlcA(b1-6)Gal = biological target: GlcA(b1-6)Gal
# Outline: as §1
# [7] = biological target: GlcA3S(b1-3)Gal(b1-4)GlcNAc(b1-2)Man
# Outline: as §1
# [8] = biological target: GlcA3S(b1-3)Gal(b1-4)GlcNAc(b1-3)Gal(b1-4)Glc
# Outline: as §1
# [9] = biological target: GlcNAc(a1-3)Gal(b1-4)GlcNAc
# Outline: as §1
# [10] = biological target: GlcNAc(a1-4)Gal(b1-3)GlcNAc
# Outline: as §1
# [11] = biological target: GlcNAc(a1-4)Gal(b1-4)GalNAc
# Outline: as §1
# [12] = biological target: GlcNAc(a1-4)Gal(b1-4)GlcNAc
# Outline: as §1
# [13] = biological target: GlcNAc(a1-4)Gal(b1-4)GlcNAc(b1-3)Gal(b1-4)Glc
# Outline: as §1
# [14] = biological target: GlcNAc(a1-4)Gal(b1-4)GlcNAc(b1-3)Gal(b1-4)GlcNAc
# Outline: as §1
# [15] = biological target: GlcNAc(a1-4)Gal(b1-4)GlcNAc(b1-3)Gal(b1-4)GlcNAc(b1-3)Gal(b1-4)GlcNAc
# Outline: as §1
# [16] = biological target: GlcNAc(a1-4)Gal(b1-4)GlcNAc(b1-3)Gal(b1-4)[Fuc(a1-3)]GlcNAc(b1-3)Gal(b1-4)[Fuc(a1-3)]GlcNAc
# Outline: as §1
# [17] = biological target: GlcNAc(a1-6)Gal(b1-4)GlcNAc
# Outline: as §1
# [18] = biological target: GlcNAc(b1-2)Gal(b1-3)GalNAc
# Outline: as §1
# [19] = biological target: GlcNAc(b1-2)Man(a1-3)[GlcNAc(b1-2)Man(a1-6)]Man(b1-4)GlcNAc(b1-4)GlcNAc
# Outline: as §1
# [20] = biological target: GlcNAc(b1-2)Man(a1-3)[GlcNAc(b1-2)Man(a1-6)]Man(b1-4)GlcNAc(b1-4)[Fuc(a1-6)]GlcNAc
# Outline: as §1
# [21] = biological target: GlcNAc(b1-2)Man(a1-3)[GlcNAc(b1-4)][GlcNAc(b1-2)Man(a1-6)]Man(b1-4)GlcNAc(b1-4)GlcNAc
# Outline: as §1
# [22] = biological target: GlcNAc(b1-2)Man(a1-3)[GlcNAc(b1-4)][GlcNAc(b1-2)Man(a1-6)]Man(b1-4)GlcNAc(b1-4)[Fuc(a1-6)]GlcNAc
# Outline: as §1
# [23] = biological target: GlcNAc(b1-2)[GlcNAc(b1-4)]Man(a1-3)[GlcNAc(b1-2)Man(a1-6)]Man(b1-4)GlcNAc(b1-4)GlcNAc
# Outline: as §1
# [24] = biological target: GlcNAc(b1-2)[GlcNAc(b1-4)]Man(a1-3)[GlcNAc(b1-4)][GlcNAc(b1-2)Man(a1-6)]Man(b1-4)GlcNAc(b1-4)GlcNAc
# Outline: as §1
# [25] = biological target: GlcNAc(b1-2)[GlcNAc(b1-4)]Man(a1-3)[GlcNAc(b1-4)][GlcNAc(b1-2)[GlcNAc(b1-6)]Man(a1-6)]Man(b1-4)GlcNAc(b1-4)GlcNAc
# Outline: as §1
# [26] = biological target: GlcNAc(b1-2)[GlcNAc(b1-4)]Man(a1-3)[GlcNAc(b1-4)][GlcNAc(b1-2)[GlcNAc(b1-6)]Man(a1-6)]Man(b1-4)GlcNAc(b1-4)[Fuc(a1-6)]GlcNAc
# Outline: as §1
# [27] = biological target: GlcNAc(b1-2)[GlcNAc(b1-6)]Man(a1-6)[GlcNAc(b1-2)Man(a1-3)]Man(b1-4)GlcNAc(b1-4)GlcNAc
# Outline: as §1
# [28] = biological target: GlcNAc(b1-2)[GlcNAc(b1-6)]Man(a1-6)[GlcNAc(b1-2)Man(a1-3)]Man(b1-4)GlcNAc(b1-4)[Fuc(a1-6)]GlcNAc
# Outline: as §1
# [29] = biological target: GlcNAc(b1-2)[GlcNAc(b1-6)]Man(a1-6)[GlcNAc(b1-4)][GlcNAc(b1-2)Man(a1-3)]Man(b1-4)GlcNAc(b1-4)GlcNAc
# Outline: as §1
# GlcNAc(b1-3)Fuc = biological target: GlcNAc(b1-3)Fuc
# Outline: as §1
# GlcNAc(b1-3)Gal = biological target: GlcNAc(b1-3)Gal
# Outline: as §1
binder,measurement,setting,value
"BC2LB (Burholderia cenocepacia), B4EH85_BURCJ (protein) MGSSHHHHHHSSGENLYFQGHMSQPFTHDDLYALLQLAGNDATAVQANGDQAVLDRMRQFMTAQLVEKLPQYDVFVDIATIPYSFDVGSWQNKVKTDAAGEVVACTVTWAGAPGVLPGAAAKFGVGAVVNYFSKATPH",glycan array binding signal (z-score),GalNAc(b1-4)GlcNAc,-0.011
same,glycan array binding signal (z-score),[1],-0.204
same,glycan array binding signal (z-score),[2],-0.156
same,glycan array binding signal (z-score),[3],-0.282
same,glycan array binding signal (z-score),GalNAc(b1-4)GlcNAc6S,-0.201
same,glycan array binding signal (z-score),GalNAc(b1-6)GalNAc,-0.289
same,glycan array binding signal (z-score),GalNAc3S(b1-4)GlcNAc,-0.231
same,glycan array binding signal (z-score),GalNAc3S(b1-4)GlcNAc3S,-0.264
same,glycan array binding signal (z-score),[4],-0.402
same,glycan array binding signal (z-score),GalNAc4S6S(b1-4)GlcNAc,-0.267
same,glycan array binding signal (z-score),GalNAc6S(b1-4)GlcNAc,-0.3
same,glycan array binding signal (z-score),Glc(a1-4)Glc,-0.138
same,glycan array binding signal (z-score),[5],-0.254
same,glycan array binding signal (z-score),Glc(a1-6)Glc(a1-6)Glc,-0.061
same,glycan array binding signal (z-score),[6],-0.041
same,glycan array binding signal (z-score),Glc(b1-4)Glc,0.043
same,glycan array binding signal (z-score),Glc(b1-6)Glc,0.216
same,glycan array binding signal (z-score),GlcA(b1-3)Gal,-0.263
same,glycan array binding signal (z-score),GlcA(b1-3)GlcNAc,-0.145
same,glycan array binding signal (z-score),GlcA(b1-6)Gal,-0.214
same,glycan array binding signal (z-score),[7],-0.286
same,glycan array binding signal (z-score),[8],-0.222
same,glycan array binding signal (z-score),[9],-0.134
same,glycan array binding signal (z-score),[10],-0.346
same,glycan array binding signal (z-score),[11],-0.265
same,glycan array binding signal (z-score),[12],-0.363
same,glycan array binding signal (z-score),[13],-0.27
same,glycan array binding signal (z-score),[14],-0.246
same,glycan array binding signal (z-score),[15],-0.337
same,glycan array binding signal (z-score),[16],1.79
same,glycan array binding signal (z-score),[17],-0.123
same,glycan array binding signal (z-score),[18],-0.244
same,glycan array binding signal (z-score),[19],-0.234
same,glycan array binding signal (z-score),[20],-0.301
same,glycan array binding signal (z-score),[21],-0.335
same,glycan array binding signal (z-score),[22],-0.246
same,glycan array binding signal (z-score),[23],-0.229
same,glycan array binding signal (z-score),[24],0.533
same,glycan array binding signal (z-score),[25],-0.172
same,glycan array binding signal (z-score),[26],-0.298
same,glycan array binding signal (z-score),[27],-0.247
same,glycan array binding signal (z-score),[28],-0.233
same,glycan array binding signal (z-score),[29],-0.349
same,glycan array binding signal (z-score),GlcNAc(b1-3)Fuc,-0.17
same,glycan array binding signal (z-score),GlcNAc(b1-3)Gal,-0.363

# Reference: the supplement of paper PMC8728848
